# Test results: PubChem BioAssay AID463173 (ICCB-Longwood Screening Facility, Harvard Medical School, 2010)
# In all, about 52,000 compounds went through this assay and about 1,700 (3.3%) were called active. Rule as the data show it: active = survival mostly below about 52% (no sharp cut-off); inactive = mostly above about 56%. The list shows a part of the results.
# System: Wild type
# Experiment: growth inhibition of S. aureus wild type versus tarO mutant, primary screen, teichoic acid synthesis inhibitors, RN4220, OD600 (AID 463173)
# Conditions: S. aureus RN4220 wild type/DeltatarO growth, OD600, 18 h, hits give low values, screened at 18.75 µg/mL (by protocol)
row,SMILES,survival
1,CCc1ccc(CSc2nc(-c3ccccc3F)nc3c2Cc2c(CO)cnc(C)c2O3)cc1,inactive: 86%
2,O=C(CSc1nc(=O)[nH]c2c1CCC2)NCc1ccccc1Cl,inactive: 78%
3,CCN(Cc1ccccc1)C(=O)Cn1c(=O)n(-c2ccccc2)c(=O)c2c1c1cc(C)ccc1n2C,inactive: 71%
4,Cc1nc2ccccc2c(=O)n1-c1ccc(NC(=O)c2ccccc2[N+](=O)[O-])cc1,inactive: 73%
5,Cc1ccc(NC(=O)Cn2c(=O)n(Cc3ccco3)c(=O)c3oc4ccccc4c32)cc1C,inactive: 88%
6,COc1ccc(OC(=O)c2nc(SCc3ccccc3F)ncc2Cl)cc1,inactive: 86%
7,CCC(C)NC(=O)c1nn(-c2ccc(C)cc2)nc1CO (configuration not stated),inactive: 88%
8,O=C(NC1CCCCCC1)C1COc2ccccc2O1 (configuration not stated),inactive: 128%
9,CCCC(c1nnnn1CCC(C)C)N1CCC(C(N)=O)CC1 (configuration not stated),inactive: 105%
10,Cc1cccc(CN2C(=O)c3ccccc3Sc3ccc(C(=O)NC4CCCCC4)cc32)c1,inactive: 128%
11,CC(C)(C)c1ccc(C(=O)NCC(c2cccnc2)N2CCc3ccccc3C2)cc1 (configuration not stated),inactive: 97%
12,Cc1cccc(CNC(=O)C2CCC(CNS(=O)(=O)c3ccc4c(c3)CCCC(=O)N4)CC2)c1 (configuration not stated),inactive: 65%
13,O=C(Nc1ccc2nc(SCC(=O)N3CCOCC3)sc2c1)c1cccc(Br)c1,inactive: 39%
14,CC1CCC(C(=O)NC(C(=O)OCC(=O)c2ccc(Br)cc2)C(C)C)CC1 (configuration not stated),inactive: 90%
15,Cc1ccc(CNS(=O)(=O)c2cc3c(cc2Cl)NC(=O)CO3)o1,inactive: 124%
16,CCCn1c(N)nc2c1c(=O)[nH]c(=O)n2C,inactive: 110%
17,Cc1ccc(S(=O)(=O)c2cn(CC(=O)Nc3cccc(C)c3)c3cc4c(cc3c2=O)OCO4)cc1,inactive: 86%
18,CNS(=O)(=O)c1cn(CC(=O)Nc2ccc(OC)cc2OC)cc1S(=O)(=O)NC,inactive: 73%
19,Cc1ccc(/C=C/c2onc(C)c2S(=O)(=O)N2CCC(C(=O)Nc3ccc(Br)c(C)c3)CC2)cc1,inactive: 91%
20,CCC(CC)C(=O)Nc1cc(-c2ccccc2F)nn1-c1ccccc1,inactive: 71%
21,Cc1csc2nc(-c3ccc(NS(=O)(=O)c4cc(F)ccc4F)cc3)cn12,inactive: 76%
22,Cc1ccccc1/C=C(\C#N)c1nc(-c2ccc(Cl)cc2)cs1,inactive: 30%
23,COc1cc2c(C)nc(C)c(C#N)c2cc1OC,inactive: 125%

row,SMILES,survival
1,COc1ccccc1C(=O)Nc1ccc(C(=O)OCc2cc(=O)n3nc(C)sc3n2)cc1,inactive: 120%
2,CCN(CC)C(=O)Cn1c(=O)n(-c2ccccc2)c(=O)c2c3c(sc21)CCC3,inactive: 88%
3,COc1ccc(CCN2C(=O)CN(C3CCCCCC3)C(=O)C2c2ccc(OC(C)C)c(OC)c2)cc1OC (configuration not stated),inactive: 71%
4,Cc1ccc(CNC(=O)c2nnc(Cc3ccc(Cl)cc3)o2)cc1,inactive: 79%
5,CN(C(=O)c1ccc2c(Cl)c3c(nc2c1)CCC3)c1ccccc1F,inactive: 110%
6,Cc1ccc(NC(=O)Cn2c(-c3cncs3)nc3ccccc32)c(Br)c1,inactive: 76%
7,Cc1ccc(CNC(=O)CN2C(=O)C3(SCC(=O)N3c3ccc(F)cc3)c3ccccc32)cc1 (configuration not stated),inactive: 73%
8,Cc1c(Cl)cccc1Nc1nc2ccc(C(=O)c3ccccc3)cc2n2cnnc12,inactive: 98%
9,Cc1ccc2c(c1)C1OCCC1C(c1cccs1)N2 (configuration not stated),inactive: 111%
10,CC1CN(C(=O)N2CCC(C(=O)NCCCc3ccccc3)CC2)c2ccccc2O1 (configuration not stated),inactive: 87%
11,CC(=O)N1CCc2c(sc3c2c(=O)n(Cc2ccccc2)c(=O)n3Cc2cc(C)ccc2C)C1,inactive: 93%
12,CCOc1ccc(Nc2oc(/C=C/c3cccc(OC)c3)nc2C#N)cc1,inactive: 89%
13,CCCCCn1c(CCNC(=O)c2cccc(C)c2)nc2ccccc21,active: 2%
14,O=C(CSc1nc2sc3c(c2c(=O)[nH]1)CCCC3)Nc1nc2c(s1)CCCC2,inactive: 97%
15,Cc1cc(C)c2c(n1)sc1c(=O)n(-c3ccccc3C(F)(F)F)nnc12,inactive: 130%
16,CC1(C)Cc2ccccc2C(NN=C2CCCCC2)=N1,inactive: 106%
17,CCSc1nc2c([nH]c3ccccc32)c(=O)n1-c1ccc(F)cc1,inactive: 79%
18,CCc1ccc(CNC(=O)C2CCCN(S(=O)(=O)c3ccc4c(ccn4C)c3)C2)cc1 (configuration not stated),inactive: 95%
19,COc1ccc(CNC(=O)CCc2nc(-c3ccc(OC)cc3)no2)cc1,inactive: 79%
20,Nc1nc2c(s1)CCCC2,inactive: 99%
21,CCCCOc1ccc(CNC(=O)c2ccc3c(c2)N(C)C(=O)C2CCCCN32)cc1 (configuration not stated),inactive: 88%
22,CCC(=O)N1CCc2cc(CNS(=O)(=O)c3cccs3)ccc21,inactive: 89%
23,CCOC(=O)C(CC)Sc1c(CC)cnc2c1c(=O)n(C)c(=O)n2C (configuration not stated),inactive: 72%

row,SMILES,survival
1,Cc1ccc(OCCSc2nc3ccc(NC(=O)c4ccc(F)cc4)cc3s2)cc1,inactive: 114%
2,Cc1cccc(C(C)C)c1NC(=O)C(NS(=O)(=O)c1cccc2nsnc12)c1ccccc1 (configuration not stated),inactive: 81%
3,Fc1ccc(COC(CN2CCCCC2)CN2CCCCC2)cc1,inactive: 99%
4,COc1ccc(-c2c(C)c3ccc(O)c(CN4CCCC4)c3oc2=O)cc1OC,inactive: 112%
5,Cc1ccc(Cc2cn3cc(-c4ccc(F)cc4)nc3s2)cc1,inactive: 140%
6,COC(=O)CSc1nc2ccccc2n1CC(=O)N1C(C)CCCC1C (configuration not stated),inactive: 104%
7,COc1cccc(-c2cn3ncsc3n2)c1,inactive: 80%
8,O/N=C1\CCCc2nnc3c(c21)CCCC3,inactive: 111%
9,Cc1ccccc1CSc1ccc(-c2cccs2)nn1,inactive: 124%
10,Cc1ccc(NC(=O)Cn2cc(C(=O)C3CC3)c3ccccc32)cc1C,inactive: 92%
11,Cc1ccc(S(=O)(=O)NC(C)(C)CN2CCCCC2)cc1,inactive: 81%
12,Cc1cc(C)n(-c2nc(C)c(C)c(=O)n2CC(=O)Nc2ccc(OC(F)(F)F)cc2)n1,inactive: 97%
13,Cc1cccc(NC(=O)c2cc(S(=O)(=O)N3CCCCCC3)cn2C)c1C,inactive: 60%
14,Cc1ccc(CNC(=O)c2ccc(Cn3c(=O)c4ccccc4n(CC(=O)Nc4c(C)cc(C)cc4C)c3=O)cc2)cc1,inactive: 68%
15,O=c1cccc2n1CC1CC(C2)N(c2nc(N3CCCCC3)nc(N3CCCCC3)n2)C1 (configuration not stated),inactive: 104%
16,COc1ccc(OCC2CNC(=O)O2)cc1 (configuration not stated),inactive: 111%
17,CC(C)(N)COc1nonc1N,inactive: 111%
18,O=C(Cc1cccs1)N(c1nnc(-c2ccc(F)cc2)s1)C1CCCC1,inactive: 114%
19,O=C(CN1CCN(c2ccc(F)cc2)CC1)N1CCCC1,inactive: 97%
20,COc1ccc(OC)c(-n2nnc(-c3nc(-c4cc(OC)c(OC)c(OC)c4)no3)c2C)c1,inactive: 84%
21,c1cnc(N2CCN(c3ncc4c(n3)CCNC4)CC2)nc1,inactive: 127%
22,COc1ccc(-c2nc3ccccc3n3c(-c4ccccc4)c4c(=O)n(C)c(=O)n(C)c4c23)cc1OC,inactive: 70%
23,O=c1oc2c3c(ccc2c2ccccc12)OCN(Cc1ccc(Cl)cc1)C3,inactive: 82%

row,SMILES,survival
1,COc1cc2c(cc1OC)C(COc1ccc3c(C)cc(=O)oc3c1)N(C(=O)c1ccccc1C)CC2 (configuration not stated),inactive: 131%
2,COc1ccc(N2CCN(C(=O)c3cccc4ccccc34)CC2)cc1,inactive: 109%
3,COc1ccc(-n2nnnc2C2CCN(S(=O)(=O)c3ccc(C)cc3)CC2)cc1,inactive: 119%
4,COCCn1c(=O)[nH]c2cc(C(=O)N3CCN(c4ccccc4)CC3)ccc2c1=O,inactive: 69%
5,CC(=O)N1c2ccccc2C(C)(c2ccc(C)cc2)CC1(C)C (configuration not stated),active: -2%
6,O=C(NCc1ccccc1)c1cccn1-c1nnc(N2CCCC2)s1,inactive: 47%
7,CN1C(=O)c2ccccc2Sc2ccc(NC(=O)N3CCN(c4ccccc4)CC3)cc21,inactive: 113%
8,CC(=O)N1CCc2cc(S(=O)(=O)NC(Cc3ccccc3)C(=O)Nc3cc(C)ccc3C)ccc21 (configuration not stated),inactive: 72%
9,CCOc1ccc2nc(NCCCNC(=O)C3CCCO3)c(C#N)cc2c1 (configuration not stated),inactive: 105%
10,CCOc1ccc(CNC(=O)c2nn(-c3ccc(OC)cc3)c(=O)c3c2c2ccccc2n3C)cc1,inactive: 125%
11,Cc1ccc(-c2ccc(CCC(=O)O)n2-c2ccc(C(N)=O)cc2)cc1,inactive: 86%
12,NC(=O)CSc1ncc2c(n1)-c1ccccc1N(Cc1ccc(F)cc1)S2(=O)=O,inactive: 83%
13,CCOc1ccc(C(=O)Nc2ccc3nc(SCC(=O)N4CCc5ccccc54)sc3c2)cc1,inactive: 77%
14,CC1=C(c2ccc(C)cc2)S(=O)(=O)N(Cc2ccc(C(=O)Nc3ccc(C)c(F)c3)cc2)C1=O,inactive: 83%
15,COc1ccc(-c2cc3ccc(O)c(CN4CCCC4)c3oc2=O)cc1,inactive: 124%
16,Cc1ccc(-c2c(C(=O)NCCc3ccccc3)oc(=O)c3ccccc23)cc1,inactive: 79%
17,COc1ccc(-c2n[nH]c3c2cnc2ccc(F)cc23)cc1,inactive: 131%
18,CCCSc1nc(-c2ccccc2)[nH]c1S(=O)(=O)c1ccc(C)cc1,inactive: 55%
19,Cc1cc(C)c2oc(-c3ccc(Cl)c(NC(=O)c4cccs4)c3)nc2c1,inactive: 63%
20,CCn1cc(C(=O)NCCCOC)c(=O)c2cc(S(=O)(=O)N3CCc4ccccc4C3)ccc21,inactive: 78%
21,COc1ccccc1NC(=O)c1cnc(SCC(=O)N2CCOCC2)n(C)c1=O,inactive: 77%
22,N#C/C(=C\c1ccc(-c2cccc(Cl)c2)o1)C(N)=O,inactive: 114%
23,COc1ccc2c(c1)c1c(c(=O)n(Cc3ccccc3)c(=O)n1Cc1cccc(Cl)c1)n2C,inactive: 99%
